# No constants are given. Whether binding was seen depends on the method and setting. Some results given as binding are weak or reduced against the parent protein; the word gives no strength. For part of these data: Sequences can lack the tags named with a protein.
# T1: 3nmt1-mECitrine-Ync13 (S. pombe) (UniProt O13683)
# T1 sequence: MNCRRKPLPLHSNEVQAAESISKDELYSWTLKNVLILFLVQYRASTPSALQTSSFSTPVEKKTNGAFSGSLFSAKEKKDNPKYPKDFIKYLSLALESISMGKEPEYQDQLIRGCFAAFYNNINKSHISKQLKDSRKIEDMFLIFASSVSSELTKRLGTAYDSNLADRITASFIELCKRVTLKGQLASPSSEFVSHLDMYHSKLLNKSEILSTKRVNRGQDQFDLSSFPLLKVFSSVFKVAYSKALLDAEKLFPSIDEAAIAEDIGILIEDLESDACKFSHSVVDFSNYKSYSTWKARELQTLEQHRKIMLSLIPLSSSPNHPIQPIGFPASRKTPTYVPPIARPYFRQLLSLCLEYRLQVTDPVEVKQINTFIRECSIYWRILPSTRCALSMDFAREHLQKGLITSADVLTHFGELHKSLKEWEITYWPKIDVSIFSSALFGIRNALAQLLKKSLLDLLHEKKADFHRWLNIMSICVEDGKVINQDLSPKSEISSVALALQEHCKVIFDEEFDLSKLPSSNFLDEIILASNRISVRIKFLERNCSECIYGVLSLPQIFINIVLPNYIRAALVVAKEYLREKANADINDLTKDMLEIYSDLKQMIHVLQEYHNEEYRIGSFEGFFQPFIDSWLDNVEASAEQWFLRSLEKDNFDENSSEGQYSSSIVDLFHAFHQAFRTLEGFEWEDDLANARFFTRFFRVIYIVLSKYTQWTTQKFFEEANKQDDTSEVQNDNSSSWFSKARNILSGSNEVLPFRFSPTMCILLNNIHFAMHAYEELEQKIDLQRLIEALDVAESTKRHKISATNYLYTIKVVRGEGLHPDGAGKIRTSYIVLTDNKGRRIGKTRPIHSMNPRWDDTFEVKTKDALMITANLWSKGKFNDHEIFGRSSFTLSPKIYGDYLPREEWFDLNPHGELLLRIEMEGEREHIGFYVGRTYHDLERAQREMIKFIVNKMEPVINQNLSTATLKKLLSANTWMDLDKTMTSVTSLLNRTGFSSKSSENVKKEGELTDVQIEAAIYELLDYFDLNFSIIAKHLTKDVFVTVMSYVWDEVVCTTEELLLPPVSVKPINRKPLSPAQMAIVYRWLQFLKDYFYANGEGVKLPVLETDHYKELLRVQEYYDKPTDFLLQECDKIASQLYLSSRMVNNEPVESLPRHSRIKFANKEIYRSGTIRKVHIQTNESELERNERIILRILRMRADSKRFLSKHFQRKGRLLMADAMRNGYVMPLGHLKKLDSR
# T2: Rga7-mEGFP (S. pombe) (UniProt O94466)
# T2 sequence: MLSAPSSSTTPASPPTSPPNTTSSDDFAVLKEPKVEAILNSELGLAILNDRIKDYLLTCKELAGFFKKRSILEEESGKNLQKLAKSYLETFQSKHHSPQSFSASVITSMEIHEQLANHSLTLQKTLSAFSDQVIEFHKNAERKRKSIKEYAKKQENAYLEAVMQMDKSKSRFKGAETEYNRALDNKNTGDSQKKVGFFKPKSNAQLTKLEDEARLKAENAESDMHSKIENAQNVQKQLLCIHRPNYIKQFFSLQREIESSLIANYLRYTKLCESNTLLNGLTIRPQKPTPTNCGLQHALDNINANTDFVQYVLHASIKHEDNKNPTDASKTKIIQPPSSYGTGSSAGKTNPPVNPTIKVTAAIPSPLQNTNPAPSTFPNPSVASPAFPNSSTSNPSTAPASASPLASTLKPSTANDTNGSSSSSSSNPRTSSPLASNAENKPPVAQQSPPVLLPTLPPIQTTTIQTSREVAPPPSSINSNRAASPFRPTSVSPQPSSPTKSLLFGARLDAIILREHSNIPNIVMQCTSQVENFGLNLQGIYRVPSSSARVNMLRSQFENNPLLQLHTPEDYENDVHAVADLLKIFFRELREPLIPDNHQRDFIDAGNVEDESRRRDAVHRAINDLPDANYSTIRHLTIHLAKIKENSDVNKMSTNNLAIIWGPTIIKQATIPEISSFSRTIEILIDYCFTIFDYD
# B1: Rga7-mCherry (protein, UniProt O94466 1-695)
# chain: T2 sequence
# B2: Rng10-mCherry (protein, UniProt Q9P6L9 1-1038)
# chain: MEENTAQKQSNATGLQRHVSGRWISNVPSYEGNEWSSEESESEDKESNLTSSENIGKNPERELNSDGTDRIIEEEEEEDDIENEASSFSEQSENENYDFSYPGTFVYRKAASSSHETLATKVVSADESARLWAEKRRFLLQKLGKDPNSKPIDYKSSMASSSTRSSQSSQVSAIQPQSQDDNRVSDIRQMENRRELNVKRRSVSSPAEDLAIRPLSFSRYKKAEEIPESLPPIKGRDSFSSVRELNESNVFARAPNKNRFSFASVAETGSGSNFSRATSSRSSKTRSVVYEPNHRHTSFFGDTLSNLSSSLNDKKSPNDDHAVLDSELMEQTLPDSAEAVEIANNVKEDIVSTANDDANELDNTSEKATLETSSKPVTEQAIEQSEVVQEVEEGDTNMTTNTILKPTDEIINKGYAYSITSSHSNHSNEKFEQIPSPDEKLSRTDIDTHVKQLQTTKSTDSLSIPFVESPQQNPEEELSDSLSNDFGIDAEKEKDENLSKPEHHPSITSVNSPFLYSPSKQPSGELDEENLKLRLQDSDVDDEVATIRSLKQNNATNSEVETVTNDPSFSQQPGTHSRILRNFDAISSIDSIPDSFSDSAVDLPVDSSKYTLVGKTQSNSNLLQDNAEKHISKSNLEKVDVKGDTSPNSVEQGIEPQAASVVGSPRSSLVSNNSLEEGALLKNSESLESIYGYLSEEPDPALTKLNTEDPFWTKGSSDDEHTIASVEQDVYPYKTSLPTIVEATTSHTESSNSKAPAIEETTTTKVEVVAAHDAVSISSNSSTHKSHSEPLNRDELEVAALSRGSLPEPPKPNKQIVVQEEDQRDTLSLKTSTTGLSSHSKSAENNSTQQSTTSPSINSGASADAVSSGISKKADNSETNLNYFATLDAFVKSPLMSFDGLGELGSTDQRYNFFNQKIQEYSAYDSGLDNWIQFCLEKDGEAPKEAPPPPRSEPVSTTTKLAKRITQPSLSPARSTVTITHNIATEAKKKSKSAANDILHLFKKKAKSEQSNAKSSSSSIKESKKMKTLFGKKLGFKS
# B3: Sec1-tdTomato (protein, UniProt O94590 1-693)
# chain: MTLLELQKELFLSKINSVECATKWKVLIVDTKTADIINHFITIHSLLEEKIAAVEILENPRTPNSSFEALYILHSEEKLVDCILKDEEYDKRYPGIHIVFLDMVKEPLINKLRTSRIASKIRTVQVAYLDFTSLESRYFQVHDSFSGLRLYHPSNAAIIRQELSKVAHGIFSVCVSLGISPNIRCYYPKNAPHASKTMSFILANQLSEIVEEYCSKHPGYHEAASKSTCLIVDRSLDTAAPFLHEFTYQAMIHDLLPIKNEQYPYEILGPQGTEKRTGKLDDDDLVYTTIRHMHMRDAIEKLMKDFNQFCIDNTLFLDKERATSLNDMRSMLAGLSDFQELRDQYSLHLTMAQECMNIFEKQQLNLIGAIEQDLSTGSNVEGKVPRSVLSELLPLLDEGNAEESTKIRLLLLYIIYRDGIILQDLFRLFRHSNLSTSREQIFQNLEQLGTRVIKNLTDQSSKRKEVANSLPAGEDVYELSRYVPTLKVVLENLIQDKLDPELFPYVRNTTPQTEVSMEQTSLRSSRPSWTRSRSMASKLPREKMLVFVAGGTTFSELRTCYELSDKYNKDIYIGSTVCYSPNEWLDFFSKFQQPREALKFPEDKPRHIPCLEARPSPNRIQEQPNIDVPSTRYENTSSSDAVSIHKDEKKSKGKSHKLGKLMMSSKKDKDKSKEKVPTYGTSDKKKKKRFGVF
# B4: Fim1-mCherry (protein, UniProt O59945 1-614)
# chain: MLALKLQKKYPELTNEEILTLTDQFNKLDVDGKGYLDQPTTIKAFEDSKKGSYDEVREAIREVNVDSSGRVEPEDFVGIFNVLKKGVEGTEVKKGRITIKGSSSSVSHTINEEERREFIKHINSVLAGDPDVGSRVPINTETFEFFDQCKDGLILSKLINDSVPDTIDERVLNKQRNNKPLDNFKCIENNNVVINSAKAMGGISITNIGAGDILEGREHLILGLVWQIIRRGLLGKIDITLHPELYRLLEEDETLDQFLRLPPEKILLRWFNYHLKAANWPRTVSNFSKDVSDGENYTVLLNQLAPELCSRAPLQTTDVLQRAEQVLQNAEKLDCRKYLTPTAMVAGNPKLNLAFVAHLFNTHPGLEPLNEEEKPEIEPFDAEGEREARVFTLWLNSLDVTPSIHDFFNNLRDGLILLQAYDKITPNTVNWKKVNKAPASGDEMMRFKAVENCNYAVDLGKNQGFSLVGIQGADITDGSRTLTLALVWQMMRMNITKTLHSLSRGGKTLSDSDMVAWANSMAAKGGKGSQIRSFRDPSISTGVFVLDVLHGIKSEYVDYNLVTDGSTEELAIQNARLAISIARKLGAVIFILPEDIVAVRPRLVLHFIGSLMAV
# B5: Clc1-mCherry (protein, UniProt Q9USP6 1-229)
# chain: MSQFPALEDFDDGLVTAPVDDSKNNTDFLEREKLALGEDAGQFETPEDKDALLNFENDSEAEQTRFEQNFPPIDAEMQASGTFSAPKAPYMGQAEVHPPEDESGDPEPVRKWKEDQMKRIQERDESSKKLRESNIEKARKAIDDFYENFNDKRDKVIAKSRKEQEKLLEENESKSTGTTSWERILKLIDLSDKPEAHGRSTERFRELLISLAKDSNAPGAAGTTVSSSS
# B6: Smi1-tdTomato (protein, UniProt O14362 1-504)
# chain: MSKNSFSSMANSVTSFFQSLTTPNRHADPSFRPSRREKQSRLPTPLQSVAASAYSGVNASQTGLLNDSRANSVTNLPNSSNTSQVGLNNISPAPVGYVPGSKTNELANNSMEMQEISPNGSASLPPPVSESWRRIDRWAEENYYELYCQLCYGATVADVDSLEYELECTLPRDVRESLYIHDGQDRGGQPTGILFGVTLLDIEEIEEESELWRRVAQSYAEATLAGKIDQAVASRQASFPPGAVQCVYAHPGWIPLAKDFVGNNIAIDLAPGPAGQWGQVILFGRDQDTKYVVARSWADFLAIVAYDMENGKWLVDEDDNSLRLIYGPPREQWSYLDILKYRARKAERRKFKKRDGKRTTRPIPKSIAKEDVTNSANSTAPSTGTTVLDDGLDNNYEDIPLYGPSKDEELIKKEELEADTDLGLINTSEINQPANLPDEPTAETSNPVSATTVEAVTTTADNKDEEKNDHVTEDVSQNSTIAEASSLQAQEEEKEIETTSVKQE
# Molecular target: T1, 3nmt1-mECitrine-Ync13 (S. pombe)
# Assay: ectopic mistargeting to mitochondria (Tom20-GBP); mEGFP-, GFP- or mECitrine-tagged protein 1 mistargeted to mitochondria by Tom20 tagged with GFP-binding protein (GBP) nanobody in live S. pombe cells; recruitment of tdTomato-, mCherry- or RFP-tagged protein 2 to mitochondria seen by confocal microscopy
row,Binder,binding
1,B1,binds
2,B2,binds
3,B3,binds
4,B4,no binding
5,B5,no binding

# Molecular target: T2, Rga7-mEGFP (S. pombe)
# Assay: as above
row,Binder,binding
1,B6,binds

# Source: article doi:10.1101/2025.05.13.653810, “Spatial control of secretory vesicle targeting by the Ync13–Rga7–Rng10 complex during cytokinesis” (bioRxiv, 2025)
